For at least one compound, name, drawing or mass did not settle the structure. Starred links: 1 amine or outer side, 2 acyl side, 3 side chain; linkers in the order of their positions; H or OH if unused. Non-standard residues stand in square brackets, D forms with d. Residues, ends and D or L forms follow the SMILES beside them. *: point of attachment. DOTA = O=C(O)CN1CCN(CC(=O)O)CCN(CC(=O)*)CCN(CC(=O)O)CC1; αMeW = C[C@](N)(Cc1c[nH]c2ccccc12)C(=O)O; Sta = CC(C)C[C@H](N)[C@@H](O)CC(=O)O; Bta = N[C@@H](Cc1csc2ccccc12)C(=O)O; Gly(cPent) = N[C@H](C(=O)O)C1CCCC1; X1 = O=C(CN1CCC(N[*:1])CC1)[*:2]; Chg = N[C@H](C(=O)O)C1CCCCC1; hSer = N[C@@H](CCO)C(=O)O; Sar = CNCC(=O)O
The molecules below were run against T1, GRPR (Homo sapiens, UniProt P30550) (assay: Determination of GRPR affinity (IC50), competition with [D-3-[125I]I-Tyr6]MJ9 on PC-3 cells). Conditions: read-out: IC50 [nM] ± SD (n = 3), ^177Lu-labeled, Table 1C.
T1 construct: endogenous in cells; host or cells: PC-3 cells
T1 sequence (P30550 whole entry): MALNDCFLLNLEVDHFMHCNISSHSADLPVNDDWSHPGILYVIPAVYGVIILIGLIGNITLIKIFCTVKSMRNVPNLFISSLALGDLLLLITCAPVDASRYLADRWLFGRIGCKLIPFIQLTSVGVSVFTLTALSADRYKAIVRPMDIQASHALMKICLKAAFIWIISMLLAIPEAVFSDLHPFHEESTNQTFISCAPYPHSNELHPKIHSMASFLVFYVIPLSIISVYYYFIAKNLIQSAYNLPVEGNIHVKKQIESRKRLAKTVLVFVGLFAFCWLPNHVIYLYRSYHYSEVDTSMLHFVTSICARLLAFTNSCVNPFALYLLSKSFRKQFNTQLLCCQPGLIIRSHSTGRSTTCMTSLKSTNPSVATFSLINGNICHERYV
Type: binding
Protocol: The reference ligand for IC50 studies ([D-3-[^125I]I-Tyr^6]MJ9) is prepared according to a previously published procedure. Briefly, 0.2 mg of [D-Tyr^6]MJ9 are dissolved in 20 μL Tracepur water and 280 μL TRIS buffer (25 mm TRIS HCl, 0.4 M NaCl, pH=7.9). After addition of the solution to a vial containing 150 μg Iodo-Gen® (1,3,4,6-Tetrachloro-3α,6α-diphenylglycouril, surface-bound), 5.0 μL (16 MBq) [^125I]Nal(74 TBq/mmol, 3.1 GBq/mL, 40 mM NaOH, Hartmann Analytic, Braunschweig, Germany) are added.
The GRPR-positive PC-3 cells are cultured in Dublecco modified Eagle medium/Nutrition Mixture F-12 with Glutamax-I (1:1) (Invitrigon), supplemented with 10% fetal calf serum and maintained at 37° C. in a humidified 5% CO2 atmosphere.
After removal of the culture medium, the cells are washed once with 500 μL of HBSS (Hank's balanced salt solution, Biochrom, Berlin, Germany, with addition of 1% bovine serum albumin (BSA)) and left in 200 μL HBSS (1% BSA) for 9 min at room temperature for equilibration. Next, 25 μL per well of solutions, containing either HBSS (1% BSA) as control or the respective ligand in increasing concentration (10^−10 M-10^−4 M in HBSS), are added with subsequent addition of 25 μL of [D-3-[^125I]I-Tyr^6]MJ9 (2.0 nM) in HBSS (1% BSA).
All experiments are performed in triplicate for each concentration. After 2 h incubation at room temperature, the experiment is terminated by removal of the medium and consecutive rinsing with 300 μL of HBSS. The media of both steps are combined in one fraction and represent the amount of free radiolabeled reference. Afterwards, the cells are lysed with 300 μL of 1 M NaOH for at least 15 min and united with the 300 μL NaOH of the following washing step. Quantification of bound and free radiolabeled reference is accomplished in a γ-counter.
IC50 determination for each ligand was repeated twice.

Row | Compound | IC50
1 | CC(C)C[C@H](NC(=O)C[C@H](O)[C@H](CC(C)C)NC(=O)[C@H](Cc1c[nH]cn1)NC(=O)CNC(=O)[C@@H](NC(=O)[C@H](C)NC(=O)[C@H](Cc1csc2ccccc12)NC(=O)[C@H](CCC(N)=O)NC(=O)[C@@H](Cc1ccccc1)NC(=O)CN1CCC(NC(=O)CN2CCN(CC(=O)O)CCN(CC(=O)O)CCN(CC(=O)O)CC2)CC1)C1CCCCC1)C(N)=O [DOTA-[Bta^8, Chg^10]MJ9] ({DOTA}-[X1][dF]Q[Bta]A[Chg]GH[Sta]L-NH2) | 95.2 ± 17.4 nM
2 | CC(C)C[C@H](NC(=O)C[C@H](O)[C@H](CC(C)C)NC(=O)[C@H](Cc1c[nH]cn1)NC(=O)CNC(=O)[C@@H](NC(=O)[C@H](C)NC(=O)[C@H](Cc1csc2ccccc12)NC(=O)[C@H](CCC(N)=O)NC(=O)[C@@H](Cc1ccccc1)NC(=O)CN1CCC(NC(=O)CN2CCN(CC(=O)O)CCN(CC(=O)O)CCN(CC(=O)O)CC2)CC1)C1CCCC1)C(N)=O [DOTA-[Bta^8, Cpg^10]MJ9] ({DOTA}-[X1][dF]Q[Bta]A[Gly(cPent)]GH[Sta]L-NH2) | 108 ± 21 nM
3 | CC(C)C[C@H](NC(=O)C[C@H](O)[C@H](CC(C)C)NC(=O)[C@H](Cc1c[nH]cn1)NC(=O)CN(C)C(=O)[C@@H](NC(=O)[C@H](C)NC(=O)[C@H](Cc1csc2ccccc12)NC(=O)[C@H](CCC(N)=O)NC(=O)[C@@H](Cc1ccccc1)NC(=O)CN1CCC(NC(=O)CN2CCN(CC(=O)O)CCN(CC(=O)O)CCN(CC(=O)O)CC2)CC1)C(C)C)C(N)=O [DOTA-[Bta^8, N—Me-Gly^11]MJ9] ({DOTA}-[X1][dF]Q[Bta]AV[Sar]H[Sta]L-NH2) | 9.2 ± 0.9 nM
4 | CC(C)C[C@H](NC(=O)C[C@H](O)[C@H](CC(C)C)NC(=O)[C@H](Cc1c[nH]cn1)NC(=O)CNC(=O)[C@@H](NC(=O)[C@H](CO)NC(=O)[C@H](Cc1csc2ccccc12)NC(=O)[C@H](CCC(N)=O)NC(=O)[C@@H](Cc1ccccc1)NC(=O)CN1CCC(NC(=O)CN2CCN(CC(=O)O)CCN(CC(=O)O)CCN(CC(=O)O)CC2)CC1)C(C)C)C(N)=O [DOTA-[Bta^8, Ser^9]MJ9] ({DOTA}-[X1][dF]Q[Bta]SVGH[Sta]L-NH2) | 76 ± 2.8 nM
5 | CC(C)C[C@H](NC(=O)C[C@H](O)[C@H](CC(C)C)NC(=O)[C@H](Cc1c[nH]cn1)NC(=O)CNC(=O)[C@@H](NC(=O)[C@H](C)NC(=O)[C@H](Cc1c[nH]c2ccccc12)NC(=O)[C@H](CCC(N)=O)NC(=O)[C@@H](Cc1ccccc1)NC(=O)CN1CCC(NC(=O)CN2CCN(CC(=O)O)CCN(CC(=O)O)CCN(CC(=O)O)CC2)CC1)C1CCCCC1)C(N)=O [DOTA-[Chg^10]MJ9] ({DOTA}-[X1][dF]QWA[Chg]GH[Sta]L-NH2) | 67.3 ± 6.6 nM
6 | CC(C)C[C@H](NC(=O)C[C@H](O)[C@H](CC(C)C)NC(=O)[C@H](Cc1c[nH]cn1)NC(=O)CNC(=O)[C@@H](NC(=O)[C@H](C)NC(=O)[C@H](Cc1c[nH]c2ccccc12)NC(=O)[C@H](CCC(N)=O)NC(=O)[C@@H](Cc1ccccc1)NC(=O)CN1CCC(NC(=O)CN2CCN(CC(=O)O)CCN(CC(=O)O)CCN(CC(=O)O)CC2)CC1)C1CCCC1)C(N)=O [DOTA-[Cpg^10]MJ9] ({DOTA}-[X1][dF]QWA[Gly(cPent)]GH[Sta]L-NH2) | 36.6 ± 15.9 nM
7 | CC(C)C[C@H](NC(=O)C[C@H](O)[C@H](CC(C)C)NC(=O)[C@H](Cc1c[nH]cn1)NC(=O)CNC(=O)[C@@H](NC(=O)[C@H](C)NC(=O)[C@H](Cc1c[nH]c2ccccc12)NC(=O)[C@H](CCO)NC(=O)[C@@H](Cc1ccccc1)NC(=O)CN1CCC(NC(=O)CN2CCN(CC(=O)O)CCN(CC(=O)O)CCN(CC(=O)O)CC2)CC1)C1CCCCC1)C(N)=O [DOTA-[Hse^7, Chg^10]MJ9] ({DOTA}-[X1][dF][hSer]WA[Chg]GH[Sta]L-NH2) | 364 ± 36 nM
8 | CC(C)C[C@H](NC(=O)C[C@H](O)[C@H](CC(C)C)NC(=O)[C@H](Cc1c[nH]cn1)NC(=O)CNC(=O)[C@@H](NC(=O)[C@H](C)NC(=O)[C@H](Cc1c[nH]c2ccccc12)NC(=O)[C@H](CCO)NC(=O)[C@@H](Cc1ccccc1)NC(=O)CN1CCC(NC(=O)CN2CCN(CC(=O)O)CCN(CC(=O)O)CCN(CC(=O)O)CC2)CC1)C1CCCC1)C(N)=O [DOTA-[Hse^7, Cpg^10]MJ9] ({DOTA}-[X1][dF][hSer]WA[Gly(cPent)]GH[Sta]L-NH2) | 115 ± 8 nM
9 | CC(C)C[C@H](NC(=O)C[C@H](O)[C@H](CC(C)C)NC(=O)[C@H](Cc1c[nH]cn1)NC(=O)CN(C)C(=O)[C@@H](NC(=O)[C@H](C)NC(=O)[C@H](Cc1c[nH]c2ccccc12)NC(=O)[C@H](CCO)NC(=O)[C@@H](Cc1ccccc1)NC(=O)CN1CCC(NC(=O)CN2CCN(CC(=O)O)CCN(CC(=O)O)CCN(CC(=O)O)CC2)CC1)C(C)C)C(N)=O [DOTA-[Hse^7, N—Me-Gly^11]MJ9] ({DOTA}-[X1][dF][hSer]WAV[Sar]H[Sta]L-NH2) | 26.4 ± 0.6 nM
10 | CC(C)C[C@H](NC(=O)C[C@H](O)[C@H](CC(C)C)NC(=O)[C@H](Cc1c[nH]cn1)NC(=O)CNC(=O)[C@@H](NC(=O)[C@H](CO)NC(=O)[C@H](Cc1c[nH]c2ccccc12)NC(=O)[C@H](CCO)NC(=O)[C@@H](Cc1ccccc1)NC(=O)CN1CCC(NC(=O)CN2CCN(CC(=O)O)CCN(CC(=O)O)CCN(CC(=O)O)CC2)CC1)C(C)C)C(N)=O [DOTA-[Hse^7, Ser^9]MJ9] ({DOTA}-[X1][dF][hSer]WSVGH[Sta]L-NH2) | 328 ± 20 nM
11 | CC(C)C[C@H](NC(=O)C[C@H](O)[C@H](CC(C)C)NC(=O)[C@H](Cc1c[nH]cn1)NC(=O)CNC(=O)[C@@H](NC(=O)[C@H](CO)NC(=O)[C@H](Cc1c[nH]c2ccccc12)NC(=O)[C@H](CCC(N)=O)NC(=O)[C@@H](Cc1ccccc1)NC(=O)CN1CCC(NC(=O)CN2CCN(CC(=O)O)CCN(CC(=O)O)CCN(CC(=O)O)CC2)CC1)C(C)C)C(N)=O [DOTA-[Ser^9]MJ9] ({DOTA}-[X1][dF]QWSVGH[Sta]L-NH2) | 19.1 ± 1.9 nM
12 | CC(C)C[C@H](NC(=O)C[C@H](O)[C@H](CC(C)C)NC(=O)[C@H](Cc1c[nH]cn1)NC(=O)CNC(=O)[C@@H](NC(=O)[C@H](C)NC(=O)[C@H](Cc1csc2ccccc12)NC(=O)[C@H](CCC(N)=O)NC(=O)[C@@H](CCCNC(=N)N)NC(=O)CN1CCC(NC(=O)CN2CCN(CC(=O)O)CCN(CC(=O)O)CCN(CC(=O)O)CC2)CC1)C(C)C)C(N)=O [DOTA-[arg^6, Bta^8]MJ9] ({DOTA}-[X1][dR]Q[Bta]AVGH[Sta]L-NH2) | 301 ± 9 nM
13 | CC(C)C[C@H](NC(=O)C[C@H](O)[C@H](CC(C)C)NC(=O)[C@H](Cc1c[nH]cn1)NC(=O)CNC(=O)[C@@H](NC(=O)[C@H](C)NC(=O)[C@H](Cc1c[nH]c2ccccc12)NC(=O)[C@H](CCO)NC(=O)[C@@H](CCCNC(=N)N)NC(=O)CN1CCC(NC(=O)CN2CCN(CC(=O)O)CCN(CC(=O)O)CCN(CC(=O)O)CC2)CC1)C(C)C)C(N)=O [DOTA-[arg^6, Hse^7]MJ9] ({DOTA}-[X1][dR][hSer]WAVGH[Sta]L-NH2) | 405 ± 38 nM
14 | CC(C)C[C@H](NC(=O)C[C@H](O)[C@H](CC(C)C)NC(=O)[C@H](Cc1c[nH]cn1)NC(=O)CNC(=O)[C@@H](NC(=O)[C@H](C)NC(=O)[C@](C)(Cc1c[nH]c2ccccc12)NC(=O)[C@H](CCC(N)=O)NC(=O)[C@@H](CCCNC(=N)N)NC(=O)CN1CCC(NC(=O)CN2CCN(CC(=O)O)CCN(CC(=O)O)CCN(CC(=O)O)CC2)CC1)C(C)C)C(N)=O [DOTA-[arg^6, α-Me-Trp^8]MJ9] ({DOTA}-[X1][dR]Q[αMeW]AVGH[Sta]L-NH2) | 48.5 ± 1.6 nM
15 | CC(C)C[C@H](NC(=O)C[C@H](O)[C@H](CC(C)C)NC(=O)[C@H](Cc1c[nH]cn1)NC(=O)CNC(=O)[C@@H](NC(=O)[C@H](C)NC(=O)[C@H](Cc1c[nH]c2ccccc12)NC(=O)[C@H](CCC(N)=O)NC(=O)[C@@H](CCCNC(=N)N)NC(=O)CN1CCC(NC(=O)CN2CCN(CC(=O)O)CCN(CC(=O)O)CCN(CC(=O)O)CC2)CC1)C(C)C)C(N)=O [DOTA-[arg^6]MJ9] ({DOTA}-[X1][dR]QWAVGH[Sta]L-NH2) | 12.8 ± 0.9 nM
16 | CC(C)C[C@H](NC(=O)C[C@H](O)[C@H](CC(C)C)NC(=O)[C@H](Cc1c[nH]cn1)NC(=O)CNC(=O)[C@@H](NC(=O)[C@H](C)NC(=O)[C@](C)(Cc1c[nH]c2ccccc12)NC(=O)[C@H](CCC(N)=O)NC(=O)[C@@H](Cc1ccccc1)NC(=O)CN1CCC(NC(=O)CN2CCN(CC(=O)O)CCN(CC(=O)O)CCN(CC(=O)O)CC2)CC1)C1CCCCC1)C(N)=O [DOTA-[α-Me-Trp^8, Chg^10]MJ9] ({DOTA}-[X1][dF]Q[αMeW]A[Chg]GH[Sta]L-NH2) | 116 ± 20 nM
17 | CC(C)C[C@H](NC(=O)C[C@H](O)[C@H](CC(C)C)NC(=O)[C@H](Cc1c[nH]cn1)NC(=O)CNC(=O)[C@@H](NC(=O)[C@H](C)NC(=O)[C@](C)(Cc1c[nH]c2ccccc12)NC(=O)[C@H](CCC(N)=O)NC(=O)[C@@H](Cc1ccccc1)NC(=O)CN1CCC(NC(=O)CN2CCN(CC(=O)O)CCN(CC(=O)O)CCN(CC(=O)O)CC2)CC1)C1CCCC1)C(N)=O [DOTA-[α-Me-Trp^8, Cpg^10]MJ9] ({DOTA}-[X1][dF]Q[αMeW]A[Gly(cPent)]GH[Sta]L-NH2) | 71.6 ± 6.3 nM
